The results in this text go back to a collection of fitness landscapes (doi:10.1126/science.1257360).

The other results are listed elsewhere or left out.

B1: PhoQ; a variant is named by its letters at X, in order, P23837 (parent)
chain: MKKLLRLFFPLSLRVRFLLATAAVVLVLSLAYGMVALIGYSVSFDKTTFRLLRGESNLFYTLAKWENNKLHVELPENIDKQSPTMTLIYDENGQLLWAQRDVPWLMKMIQPDWLKSNGFHEIEADVNDTSLLLSGDHSIQQQLQEVREDDDDAEMTHSVAVNVYPATSRMPKLTIVVVDTIPVELKSSYMVWSWFIYVLSANLLLVIPLLWVAAWWSLRPIEALAKEVRELEEHNRELLNPATTRELTSLVRNLNRLLKSERERYDKYRTTLTDLTHSLKTPLXXLQXXLRSLRSEKMSVSDAEPVMLEQISRISQQIGYYLHRASMRGGTLLSRELHPVAPLLDNLTSALNKVYQRKGVNISLDISPEISFVGEQNDFVEVMGNVLDNACKYCLEFVEISARQTDEHLYIVVEDDGPGIPLSKREVIFDRGQRVDTLRPGQGVGLAVAREITEQYEGKIVAGESMLGGARMEVIFGRQHSAPKDE

The variants in this assay derive from B1. In words: enrichment ratio after two sorts for PhoP signalling (ratio (wild type AVST 3.29)); higher = more functional. The following applies: with PhoP (E. coli).
Consider HFDR, for which the enrichment ratio was no more than 0.25. Take GKVT: the enrichment ratio is no more than 0.25. In the case of LHED, the enrichment ratio was no more than 0.25. Consider LWYQ, for which the enrichment ratio was no more than 0.25. Regarding WKPI, the enrichment ratio is no more than 0.25. As to LKVY, the enrichment ratio is no more than 0.25. ENAA: the enrichment ratio is no more than 0.25. For the variant HAIW, the enrichment ratio was no more than 0.25.

For NYVW, the enrichment ratio was no more than 0.25. As for QRQN, the enrichment ratio was no more than 0.25.

As for QSFM, the enrichment ratio came to 0.651. On to WFCY, for which the enrichment ratio is no more than 0.25.

NSHF: the enrichment ratio was no more than 0.25. With LRPD, the enrichment ratio was no more than 0.25. Turning to TYEW, the enrichment ratio is no more than 0.25. As for VYQQ, the enrichment ratio was no more than 0.25. Take RHHD: the enrichment ratio was no more than 0.25. Then PWRM, with no more than 0.25; and TVIG, with no more than 0.25.

Regarding MLMI, the enrichment ratio was determined as 0.953.

For VTDH, the enrichment ratio is no more than 0.25. As to AEGV, the enrichment ratio was 17.5. As to SFTR, the enrichment ratio was no more than 0.25. As to DHTT, the enrichment ratio is no more than 0.25. Consider ILQF, for which the enrichment ratio was no more than 0.25. For LSIS, the enrichment ratio is no more than 0.25. Turning to NFGY, the enrichment ratio is no more than 0.25. Regarding IAML, the enrichment ratio came to 4.62. VPNQ: the enrichment ratio is no more than 0.25.

Take IPAK: the enrichment ratio is no more than 0.25. As for VNYY, the figure is no more than 0.25; as for YNTI, no more than 0.25.

Consider LHDG, for which the enrichment ratio is no more than 0.25. As for NGPG, the figure is no more than 0.25; as for IAFR, no more than 0.25; as for TKAQ, 1.86.

Regarding IANY, the enrichment ratio is no more than 0.25. As for SKFH, the figure is no more than 0.25; as for VGVK, no more than 0.25. Then AQCE, with no more than 0.25. Turning to ADAN, the enrichment ratio is no more than 0.25. GPWW: the enrichment ratio was no more than 0.25. Consider TVNW, for which the enrichment ratio was no more than 0.25. With RFPM, the enrichment ratio was no more than 0.25. As for DEHR, the figure is no more than 0.25; as for VTPV, no more than 0.25; as for PEQV, no more than 0.25. Then DVKW, with no more than 0.25. For the variant IFIN, the enrichment ratio is no more than 0.25. For WAKY, the enrichment ratio was no more than 0.25. GFKT: the enrichment ratio was no more than 0.25.

On to SCGS, for which the enrichment ratio came out at 7.34. As for ESDW, the figure is no more than 0.25; as for ILHW, no more than 0.25. Consider WKFY, for which the enrichment ratio was no more than 0.25. As for TLSH, the enrichment ratio was found to be 7.97. As for FLRN, the enrichment ratio is no more than 0.25. Take TPWI: the enrichment ratio was no more than 0.25.

LWFQ: the enrichment ratio was no more than 0.25. Turning to ILAT, the enrichment ratio worked out at 0.361. Regarding IDYQ, the enrichment ratio is no more than 0.25.

For KCPI, the enrichment ratio is no more than 0.25. Take NSLL: the enrichment ratio was found to be 3.55. As to YCKN, the enrichment ratio was no more than 0.25.

As to WSWY, the enrichment ratio is no more than 0.25. As to SWVY, the enrichment ratio is no more than 0.25. Turning to EYPG, the enrichment ratio is no more than 0.25. Take PQLD: the enrichment ratio is no more than 0.25. As for VKAG, the figure is no more than 0.25. As for WWRV, the enrichment ratio is no more than 0.25.

For the variant VKAV, the enrichment ratio was no more than 0.25. As for TFTR, the figure is no more than 0.25; as for GHPE, no more than 0.25. Take HNAN: the enrichment ratio was no more than 0.25. Take QVTM: the enrichment ratio is no more than 0.25. As to GWLP, the enrichment ratio was no more than 0.25.

As to IYKA, the enrichment ratio was no more than 0.25. PVWG: the enrichment ratio is no more than 0.25. As to RLHL, the enrichment ratio is no more than 0.25. In the case of LVVW, the enrichment ratio is no more than 0.25.

PKMS: the enrichment ratio is no more than 0.25.

For SVEH, the enrichment ratio was no more than 0.25. ATIM: the enrichment ratio was found to be 19.5. As for MPWQ, the enrichment ratio was no more than 0.25.

As for GTHV, the enrichment ratio is no more than 0.25. As for QQPM, the enrichment ratio was no more than 0.25. Consider PEAY, for which the enrichment ratio is no more than 0.25.

Turning to TMFH, the enrichment ratio is no more than 0.25. RDSL: the enrichment ratio was no more than 0.25. Take LPCW: the enrichment ratio was no more than 0.25. On to QGYW, for which the enrichment ratio is no more than 0.25. On to HFWH, for which the enrichment ratio is no more than 0.25. For the variant QEFF, the enrichment ratio was no more than 0.25. Take TEPT: the enrichment ratio is no more than 0.25. As for QHED, the figure is no more than 0.25. With ARVQ, the enrichment ratio is no more than 0.25. Turning to GPWG, the enrichment ratio was no more than 0.25.

Regarding VRVY, the enrichment ratio was no more than 0.25. VREQ: the enrichment ratio was no more than 0.25. Consider VRYC, for which the enrichment ratio was no more than 0.25.

As to FMRT, the enrichment ratio was no more than 0.25.

Regarding DMWT, the enrichment ratio was no more than 0.25.

Turning to GLWM, the enrichment ratio was no more than 0.25. Take PVGL: the enrichment ratio is no more than 0.25.

Take SAHS: the enrichment ratio was no more than 0.25. Regarding FHDP, the enrichment ratio was no more than 0.25. Then ANRF, with no more than 0.25; and HRVW, with no more than 0.25; and SDGW, with no more than 0.25. As to MVSN, the enrichment ratio is no more than 0.25. GFFQ: the enrichment ratio is no more than 0.25. Regarding LCLK, the enrichment ratio was no more than 0.25. For the variant RFQV, the enrichment ratio is no more than 0.25. Regarding LDYV, the enrichment ratio is no more than 0.25.

As for VGWP, the enrichment ratio is no more than 0.25. As for ENKL, the figure is no more than 0.25; as for EGEE, no more than 0.25; as for GYYI, no more than 0.25. For VDAP, the enrichment ratio was no more than 0.25.

On to MKRW, for which the enrichment ratio is no more than 0.25. In the case of DMAI, the enrichment ratio is no more than 0.25.

In the case of FPFN, the enrichment ratio is no more than 0.25. With KKWV, the enrichment ratio is no more than 0.25. For the variant KPLT, the enrichment ratio was no more than 0.25. Then HHSR, with no more than 0.25. As to HMRN, the enrichment ratio was no more than 0.25. For DVMR, the enrichment ratio is no more than 0.25. For MDGS, the enrichment ratio is no more than 0.25. For the variant RETN, the enrichment ratio is no more than 0.25. As for SHRS, the figure is no more than 0.25; as for FACN, no more than 0.25.

In the case of AWYN, the enrichment ratio is no more than 0.25.

For the variant VVAN, the enrichment ratio was no more than 0.25. For DHMV, the enrichment ratio is no more than 0.25.

For the variant VRAA, the enrichment ratio was no more than 0.25. As to LWLI, the enrichment ratio is no more than 0.25.

For TNDA, the enrichment ratio was no more than 0.25. Regarding SRSS, the enrichment ratio was no more than 0.25. With LGCN, the enrichment ratio was no more than 0.25. Consider GPIV, for which the enrichment ratio is no more than 0.25. In the case of STTF, the enrichment ratio was determined as 9.59. Take LPWL: the enrichment ratio was no more than 0.25. In the case of TEYD, the enrichment ratio is no more than 0.25. Turning to FMCP, the enrichment ratio is no more than 0.25.

For the variant HSWT, the enrichment ratio was no more than 0.25. Regarding RRNM, the enrichment ratio is no more than 0.25. Consider QCTV, for which the enrichment ratio was no more than 0.25. Then HREP, with no more than 0.25; and STVE, with 3.69; and NYVD, with no more than 0.25. As for AGWY, the figure is no more than 0.25. Consider PCKE, for which the enrichment ratio was no more than 0.25. As for RDIS, the figure is no more than 0.25.
